# Source: PubChem BioAssay AID1347417 (National Center for Advancing Translational Sciences (NCATS), 2020)
# About 5,300 (4.4%) of roughly 120,000 compounds were called active. This list was built around the results that the source calls inconclusive (neither active nor inactive); the mix of calls is not that of the screen. The call rests on the fitted dose curve; in most records, active means well fitted inhibition curve with a large enough effect; inconclusive means small, poorly fitted or top-dose-only effect; inactive means no such curve, though single readings can be large or run the other way. A potency beside an inconclusive call is a rough fit, not a confirmed value.
# Test: qHTS Primary assay for Inhibitors of Plasmodium falciparum Dd2 growth in vitro; further: nearly all actives have a fitted effect of over 65% in size;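 on activity, negative = inhibition: plate controls were DMSO vehicle for no effect and reference drug for full effect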
# Settings: P. falciparum Dd2 growth, SYBR Green, 72 h; activity, negative = inhibition: at 28.9 µM (top of the series) unless noted; series mostly up to 28.9 µM
# How it was run: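 Readout: SYBR Green fluorescence, 485 nm excitation, 535 nm emission, after ~16 h lysis at 37C. Before that, Dd2-infected red cells (2.5% hematocrit) grew 72 h with compound, 29 uM top final concentration.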
# Potency means the concentration at half of the fitted maximal effect; tags describe the fitted curve by direction and shape.
SMILES,Potency,"activity, negative = inhibition",outcome
Cn1nc(-c2cccs2)cc1[C@H]1CN2CC[C@H]1C[C@@H]2CNC(=O)Nc1ccccc1,"inconclusive: 31.6 µM [inhibitor, single point]",,
O=C(CCn1c(=O)c2cccn2c2cccnc21)N1CCN(c2ccc(F)cc2)CC1,"inconclusive: 17.8 µM [inhibitor, single point]",,
COc1ccc(C(=O)Nc2ccc3nc(SCC(=O)N4CCCC4)sc3c2)cc1,"inconclusive: 10 µM [inhibitor, single point]",,
COc1ccc(CNC[C@H]2O[C@H](Cc3cc(-c4ccccc4)on3)CC[C@@H]2O)cc1,"inconclusive: 2 µM [inhibitor, full curve, poor fit]",,
CC(=O)N1C[C@@H]2CCCN3CCC[C@@H]([C@H]23)[C@H]1CCCC(=O)NCCN1CCCCC1,,inactive: -7.62%,
CCn1c(CO)nnc1C1CC(NC(=O)NCCc2ccccc2F)C1 (stereo unspecified),,inactive: 1.86%,
N#Cc1cccc(CN2CCCCC23Cc2ccccc2CNC3=O)c1 (stereo unspecified),"inconclusive: 11.2 µM [inhibitor, partial curve, poor fit]",,
C=CCN(C)C(=O)C[C@@H]1c2nc(NC(=O)CCCCC)sc2C[C@@H]2[C@](C)(CO)[C@H](O)CC[C@]21C,"inconclusive: 11.2 µM [inhibitor, single point]",,
COc1cc(C2c3c(-c4cc(C)ccc4O)n[nH]c3C(=O)N2Cc2cccnc2)cc(OC)c1OC (stereo unspecified),,inactive: -7.81%,
O=C1CCN(S(=O)(=O)c2ccc3c(c2)CCC3)CCCCCCN1,,inactive: -6.42%,
Cc1ccc(Cn2c(CN3CCC(C(=O)NCc4cccnc4)CC3)cc3ccccc32)cc1,"inconclusive: 17.8 µM [inhibitor, single point]",,
CCOc1ccc(CNC(=O)CCC(=O)N2Cc3ccccc3Oc3ncccc32)cc1,"inconclusive: 20 µM [inhibitor, single point]",,
CC(C)NC(=O)C[C@@H]1O[C@H](Cn2cc(CN(C)Cc3ccccc3)nn2)[C@@H](O)[C@H]1O,,inactive: 25% [at 44.1 µM],
CCN(C(=O)Cn1ccn2nc(-c3ccccc3)c(CO)c2c1=O)c1ccccc1,"inconclusive: 17.8 µM [inhibitor, single point]",,
COc1ncccc1CNC[C@H]1O[C@@H]2C[C@@H](CC(=O)N3CCC(F)(F)C3)O[C@@H]2[C@@H]1O,,inactive: 33.4% [at 44.1 µM],
Cc1ccccc1Cn1c(-c2cccs2)nc2ccccc21,"inconclusive: 17.8 µM [inhibitor, single point]",,
Cc1ccn2c(Nc3ccccc3C)c(-c3ccncc3)nc2c1,"inconclusive: 12.6 µM [inhibitor, single point]",,
C=C(C)C(C)(C)C(=O)N1CCCC(N2CCN(c3ccccc3OC)CC2)C1 (stereo unspecified),"inconclusive: 11.2 µM [inhibitor, single point]",,
O=C(NCCCN1CCCC1=O)c1csc(N2CCN(c3ccc(F)cc3)CC2)n1,"inconclusive: 17.8 µM [inhibitor, single point]",,
COCC(=O)N1CC[C@@H](CC(=O)O)[C@@H](CCN2CCC(n3c(=O)[nH]c4ccccc43)CC2)C1,,inactive: 33.6%,
COc1ccc(NC(=O)Cn2cc(C(=O)c3ccncc3)c(=O)c3cc(C)ccc32)cc1Cl,,inactive: -12.7%,
O=C(C1CC1)N1CCc2nc(C3CC3)nc(-c3ccc(Cl)cc3)c2C1,,inactive: -0.653%,

SMILES,Potency,"activity, negative = inhibition",outcome
Cc1cccc(Cn2c(SCc3ccc(C(=O)NCc4ccccc4)cc3)nc3cccnc32)c1,"inconclusive: 17.8 µM [inhibitor, single point]",,
Cc1c(Cn2ccnc2-c2cc(C#CCO)cs2)oc2ccccc12,"inconclusive: 8.91 µM [inhibitor, single point]",,
O[C@H]1CC[C@@H](Cc2cc(-c3ccccc3)on2)O[C@@H]1CNCc1ccccc1,"inconclusive: 1.78 µM [inhibitor, partial curve, poor fit]",,
CN(C)C(=O)CNC(=O)c1cccc(S(=O)(=O)NCC2CCOC2)c1 (stereo unspecified),,inactive: -7%,
O=C1NC(=NC2CCCCC2)C2(CCN(Cc3ccccc3)C2)N1c1cc(F)cc(F)c1 (stereo unspecified),active: 1.78 µM,,
COCCN1CCCCCC(O)c2cc(C(=O)N3CC=C(c4ccccc4)CC3)ccc21 (stereo unspecified),"inconclusive: 2.24 µM [inhibitor, partial curve, poor fit]",,
CN1CCC2(CCC1=O)CN(C(=O)Cn1cccnc1=O)CCN2C (stereo unspecified),,inactive: -5.21%,
CC(=O)N1CC2(CCCN2CC2CC2)Cc2ccccc21 (stereo unspecified),active: 10 µM,,
CN1c2cc(C(=O)Nc3cccc(C#N)c3)ccc2C(=O)N2CCCCC21 (stereo unspecified),"inconclusive: 4.47 µM [inhibitor, full curve, poor fit]",,
Cc1cc(Cl)ccc1-c1ccccc1C=O,,inactive: -25.7% [at 44.1 µM],
CCC1(N2CCN(S(=O)(=O)c3ccc4c(c3)CCCC4)CC2)CCN(C(=O)NC)C1 (stereo unspecified),"inconclusive: 11.2 µM [inhibitor, single point]",,
Fc1ccc(OC2CNC2)cc1,"inconclusive: 11.2 µM [inhibitor, partial curve, poor fit]",,
CC1Oc2ccc(NC(=O)c3ccccc3F)cc2CN(Cc2ccc(Cl)cc2)C1=O (stereo unspecified),,,inactive
O=C(c1ccccc1)N1CCC2(CC1)CCN(Cc1cccs1)c1ccccc1O2,"inconclusive: 0.891 µM [inhibitor, full curve, poor fit]",,
N#Cc1ccccc1S(=O)(=O)N[C@H]1CO[C@H]2[C@@H]1OC[C@@H]2n1nnnc1Oc1ccccc1,,inactive: -10.3%,
CN(C)[S+](=O)([O-])c1ccc2c(c1)OCCN(Cc1ccccc1Cl)C2,"inconclusive: 31.6 µM [inhibitor, single point]",,
C#CCN(C)Cc1nc(C2(O)CCN(C3CCC3)CC2)cs1,active: 10 µM,,
COc1ccc(-n2c(=O)[nH]c3cc(C(=O)NCCc4ccc(Cl)cc4)ccc3c2=O)cc1OC,"inconclusive: 10 µM [inhibitor, single point]",,
CN1CCN(C(=O)Cn2c(-c3cccs3)cc3ccccc32)CC1,"inconclusive: 11.2 µM [inhibitor, single point]",,
Cc1ccc(N2C(=O)CS(=O)(=O)C23C(=O)N(Cc2ccccc2C)c2ccccc23)cc1Cl (stereo unspecified),"inconclusive: 11.2 µM [inhibitor, single point]",,
COc1cccc2c1OCC(CNC(=O)c1sc(C)nc1C)C2 (stereo unspecified),,inactive: -21.9%,
COc1ccc(NC(=O)Cn2nc(-c3ccccc3)c3cnc4ccc(C)cc4c32)cc1,"inconclusive: 2.51 µM [inhibitor, partial curve]",,

SMILES,Potency,"activity, negative = inhibition",outcome
CCn1c(=O)c2ccnn2c2ccc(C(=O)NCCCOC(C)C)cc21,"inconclusive: 17.8 µM [inhibitor, single point]",,
CN(C)c1ccc(CN2CCOC[C@H]2c2ncc(-c3cccc(F)c3)[nH]2)cc1,"inconclusive: 2.82 µM [inhibitor, partial curve, poor fit]",,
NC(=O)[C@@H]1CN(C(=O)CC2CC2)C[C@H]1COc1ccccc1,,inactive: -0.103%,
Cc1ccc2c(c1)nc1n2[C@@H](CN(Cc2ccc(C(=O)O)cc2)Cc2ccc(C(=O)O)cc2)COC1,,inactive: -11.7%,
CCc1ccc(CNC(=O)C2CCN(c3nnc(C)c4c(C)n(-c5ccc(C)cc5)nc34)CC2)cc1,active: 10 µM,,
CN(C(=O)c1ccc(C(F)(F)F)cc1)C1CCCc2ccccc21 (stereo unspecified),"inconclusive: 14.1 µM [inhibitor, single point]",,
COc1cc2c(cc1OC1CCCC1)NC(=O)C21CCN(C(=O)c2cccc(C#N)c2)CC1,"inconclusive: 1 µM [inhibitor, full curve, poor fit]",,
Cc1cnc(C(=O)N2CCC(Cc3ccc(C(N)=O)cc3)CC2)cn1,,inactive: 30.3%,
Clc1ccc(C2Cn3nnc(-c4nc(-c5ccc6c(c5)OCO6)no4)c3CO2)cc1 (stereo unspecified),,,inactive
CCc1nc(-c2c3n(c(=O)n(CC(=O)Nc4ccc(C)c(F)c4)c2=O)CCCC3)no1,,,inactive
O=C(CC1CCCC1)N1CCCC(c2noc(COc3ccccc3F)n2)C1 (stereo unspecified),"inconclusive: 7.94 µM [inhibitor, partial curve, poor fit]",,
CCc1nc(N2CCC(n3c(=O)[nH]c4ccccc43)CC2)c2cnn(C)c2n1,"inconclusive: 15.8 µM [inhibitor, single point]",,
COc1ccc(NC(=O)C2(C)CCc3cnc(Nc4ccccc4)nc32)cn1 (stereo unspecified),"inconclusive: 11.2 µM [inhibitor, single point]",,
Cc1cc(NC(=O)CSc2nc3c([nH]c4ccccc43)c(=O)n2-c2ccccc2F)no1,active: 10 µM,,
Cc1noc(C)c1S(=O)(=O)N1CCc2nc3cc(-c4ccccc4)[nH]n3c(=O)c2C1,"inconclusive: 0.316 µM [inhibitor, full curve, poor fit]",,
c1cnc(N2CCOCC2)c(CN(Cc2ccsc2)CC2CCCO2)c1 (stereo unspecified),"inconclusive: 10 µM [inhibitor, single point]",,
CCC(C)NC(=O)Cc1csc2nc(C)c(-c3cc(C)n(-c4ccc(C)cc4)n3)c(=O)n12 (stereo unspecified),,,inactive
CCOC(=O)C1CCN(c2cc(C)nc3c(-c4ccccc4OC)c(C)nn23)CC1,"inconclusive: 8.91 µM [inhibitor, single point]",,
NC(=O)c1cc[nH]c1C1CCCN(S(=O)(=O)c2ccc3c(c2)CCC3)C1 (stereo unspecified),"inconclusive: 14.1 µM [inhibitor, single point]",,
CCC(c1cccs1)N1C(=O)[C@H]2CN(S(=O)(=O)c3cc(C)ccc3C)C[C@H]2C1=O (stereo partly specified),"inconclusive: 20 µM [inhibitor, single point]",,
CC(C)(C)OC(=O)N1CCC(c2c(C(=O)NCCN3CCOCC3)cnn2-c2ccc(F)cc2)CC1,"inconclusive: 11.2 µM [inhibitor, single point]",,
Cc1ccc2c(c1)N(C(=O)N1CCC(C(=O)NCCc3ccccc3)CC1)CC(C)O2 (stereo unspecified),"inconclusive: 11.2 µM [inhibitor, partial curve, poor fit]",,
